# In article PMC4336329 (PLoS ONE, 2015):
# Hit rate of the full screen: of about 310,000 compounds, about 2,200 (0.71%) showed an effect of 50% or more. Effects have a minus sign here. The list shows a part of the results.
# Target: human ether-à-go-go-related gene (hERG) potassium channel (human, UniProt Q12809)
# Assay: primary screen, population patch clamp on CHO cells stably expressing hERG
# Chain of human ether-à-go-go-related gene (hERG) potassium channel (Q12809 whole entry, looked up): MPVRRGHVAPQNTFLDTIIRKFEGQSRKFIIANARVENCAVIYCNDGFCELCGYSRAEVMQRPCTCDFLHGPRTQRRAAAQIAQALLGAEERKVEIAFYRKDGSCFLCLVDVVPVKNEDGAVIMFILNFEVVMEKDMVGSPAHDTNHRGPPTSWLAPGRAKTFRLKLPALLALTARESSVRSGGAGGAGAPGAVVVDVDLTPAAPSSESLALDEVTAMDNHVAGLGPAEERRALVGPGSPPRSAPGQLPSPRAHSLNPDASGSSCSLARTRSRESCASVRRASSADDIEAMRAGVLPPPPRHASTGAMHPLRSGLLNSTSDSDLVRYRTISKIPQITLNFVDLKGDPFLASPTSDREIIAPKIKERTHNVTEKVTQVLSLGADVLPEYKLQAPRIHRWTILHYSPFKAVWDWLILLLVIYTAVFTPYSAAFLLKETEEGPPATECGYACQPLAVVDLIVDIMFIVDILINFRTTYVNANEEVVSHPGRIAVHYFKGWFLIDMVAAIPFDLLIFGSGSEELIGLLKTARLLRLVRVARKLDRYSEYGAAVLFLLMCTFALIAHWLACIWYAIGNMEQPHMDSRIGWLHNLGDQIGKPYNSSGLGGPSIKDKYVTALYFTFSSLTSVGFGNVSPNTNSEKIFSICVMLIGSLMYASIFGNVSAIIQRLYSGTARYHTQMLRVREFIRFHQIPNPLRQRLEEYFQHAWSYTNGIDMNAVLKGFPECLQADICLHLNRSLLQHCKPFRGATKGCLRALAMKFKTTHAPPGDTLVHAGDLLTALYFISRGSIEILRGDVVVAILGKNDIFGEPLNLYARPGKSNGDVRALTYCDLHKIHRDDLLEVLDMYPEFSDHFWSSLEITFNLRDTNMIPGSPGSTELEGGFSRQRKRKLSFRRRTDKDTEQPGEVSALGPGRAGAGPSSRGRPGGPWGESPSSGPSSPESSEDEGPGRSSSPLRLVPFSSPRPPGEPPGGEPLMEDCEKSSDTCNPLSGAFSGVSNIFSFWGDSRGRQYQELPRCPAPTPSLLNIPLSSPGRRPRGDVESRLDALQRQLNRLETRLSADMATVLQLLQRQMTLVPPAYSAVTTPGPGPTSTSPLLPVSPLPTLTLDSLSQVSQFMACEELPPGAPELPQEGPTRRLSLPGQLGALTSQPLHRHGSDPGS
row,SMILES,"hERG current change (%, negative = inhibition) at 1uM [%]"
1,COc1cccc(C(=O)Nc2cc(C(F)(F)F)ccc2Cl)c1,13.5
2,CCCCCCCN1C(Nc2ccccc2)=NC[C@@H]1C,-55.2
3,COc1cccc(Cn2c(NCc3cccnc3)nc3c2c(=O)n(C)c(=O)n3C)c1,4.99
4,CC(C(=O)Nc1ccccn1)(c1ccccc1)c1ccccc1.Cl,5.77
5,CC(C)CC(=O)Nc1nnn(C)n1,0.386
6,CCN(CC)CCCNC(=O)c1cc(-c2ccccc2)c(N2CCCCC2)s1,-4.84
7,CCc1cc2ccc(C)c(C)c2nc1SCC(=O)NNC(=O)c1ccco1,11.7
8,COc1ccc(/C=C2\Sc3ccc(C(=O)NCC4CCCO4)cc3N(C)C2=O)cc1 (centres unmarked),9.73
9,Cc1sc(NC(=O)CSc2nc(O)cc(=O)[nH]2)nc1-c1ccccc1,8.02
10,O=C(O)c1ccc(NC(=S)NCc2ccccc2)cc1,9.38
11,Cc1nn(Cc2cccc(F)c2)c(C)c1NC(=O)c1c([N+](=O)[O-])c(C)nn1C,2.77
12,COc1ccc(C(CC(=O)Nc2cc(OC)cc(OC)c2)n2cccc2)cc1 (centres unmarked),7.54
13,COc1ccc(Cl)cc1NC(=O)C/C(C)=N/NC(=O)c1ccccc1Cl,22.3
14,Cc1ccccc1-n1ncc2c(SCC(=O)N3c4ccccc4CC3C)ncnc21 (centres unmarked),8.33
15,Cc1nc2nc3c(c(=O)n2[nH]1)CCCC3,-0.889
16,CCCCCN=Cc1c(C)[nH]n(-c2nc3ccccc3s2)c1=O,-16.9
17,O=C1NC(NS(=O)(=O)c2ccccc2)(C(F)(F)F)C(=O)N1Cc1cccnc1 (centres unmarked),8.79
18,Cc1ccc(S(=O)(=O)NCc2cccnc2)s1,1.36
19,O=C(Nc1ccc(Cl)cc1Cl)c1n[nH]c(Cn2cncn2)n1,1.44
20,COC(=O)Cc1[nH]nc2c1C1(C(=O)N(Cc3ccccc3)c3ccccc31)C(C#N)=C(N)O2 (centres unmarked),-1.87
21,Cc1ccc(P(=O)(CO)c2ccc(C)cc2)cc1,-7.37
22,COc1cccc2c3c(c(=O)[nH]c12)CC(C)(C)O3,5.53

row,SMILES,"hERG current change (%, negative = inhibition) at 1uM [%]"
1,O=C(CCN1C(=O)c2ccccc2C1=O)Nc1ccc2c(c1)OCCO2,4.26
2,O=C(NCCc1c[nH]c2ccc(Cl)cc12)c1ccc([N+](=O)[O-])cc1,6.91
3,Cc1ccc(S(=O)(=O)N(C)C)cc1NC(=S)N(CCC#N)Cc1cccnc1,4.46
4,CN1CCN(CCCNC(=O)c2ccc(/C=C3\Oc4ccccc4N(Cc4ccc(Cl)cc4)C3=O)cc2)CC1,18.7
5,O=c1cc(O)c(-c2cccc(Cl)c2)c(Cl)[nH]1,14.3
6,COc1ccc2oc(C(=O)c3ccccc3)c(NC(=O)CN3CCN(C)CC3)c2c1,-12.2
7,NC(=O)C(=O)N/N=C/c1c(F)c(F)c(F)c(F)c1F,8.35
8,CN(CC(=O)Nc1ccc(F)cc1)C(=O)COC(=O)CNC(=O)c1sc2ccccc2c1Cl,19.4
9,Fc1ccccc1/C=C1\CCCC2=C1Nc1ncnn1C2c1ccccc1F (centres unmarked),0.998
10,Cc1cc(NC(=O)CSCC(=O)OC(C)C(=O)c2cc(C)c(C)cc2C)no1 (centres unmarked),11.5
11,Nc1c(N)c2ccccc2oc1=O,6.57
12,CCC(CC)N1CCN(S(=O)(=O)c2ccc(OC)cc2)CC1.O=C(O)C(=O)O,16.6
13,COC(=O)Nc1ccc(S(=O)(=O)Nc2ccc(O)cc2)cc1,4.63
14,CC(NC(=O)c1ccc(S(C)(=O)=O)cc1)c1cccc2ccccc12 (centres unmarked),4.13
15,CN(C)S(=O)(=O)c1cccc(NC(=O)CSc2nc3ccccc3[nH]2)c1,12.2
16,CN(C)C1N(C(=O)c2ccccc2)N=C2c3ccccc3S(=O)(=O)N21 (centres unmarked),12.9
17,C=CCn1cc(/C=C2/NC(=O)NC2=O)c2ccccc21,12.6
18,Cc1ccc(OCc2cc(C(=O)N(CCO)Cc3cccs3)no2)cc1C,11.9
19,Cc1cc(C)nc(Nc2n[nH]c(COc3ccc4ccccc4c3)n2)n1,5.27
20,NC(=O)c1ccc(C(F)(F)F)n(Cc2c(Cl)cccc2Cl)c1=O,22.9
21,OCCCNc1ncnc2sc3c(c12)CCN(Cc1ccccc1)C3,7.54
22,CCc1ccc(C(C(=O)NCCOC)N(C(=O)Cn2nnc3ccccc32)c2cccnc2)cc1 (centres unmarked),-4.66
